Among the data in paper PMC8605023 (2021) are Kd values, retold here.

What all share (test): FP
In assay [1] the target is SARS-CoV-2 E 1-16.
Assay [2] deals with SARS-CoV NSP3 2019-2038.
Assay [3] has as its target SARS-CoV E 1-16.
For assay [4], the target named is SARS-CoV-2 NSP3 2019-2038.

One may read the Kd as the equilibrium constant for the complex coming apart.

B1: FERM domain of Ezrin (domain or fragment)
chain: not shown
B1: the Kd in assay [1] amounted to 57.9 µM; in assay [2], 56 µM; in assay [3] it was 57.9 µM; in assay [4], 19.8 µM.
